Data: paper PMC4336329 (PLoS ONE, 2015)
Out of some 310,000 compounds screened, about 14,000 (4.5%) showed an effect of 50% or more. The effect is printed as a negative number. The list shows a part of the results.

biological target: human ether-à-go-go-related gene (hERG) potassium channel (human, UniProt Q12809); assay: primary screen, population patch clamp on CHO cells stably expressing hERG
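Further: peak tail current of the secondary pulse compared with the same well before compound.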

human ether-à-go-go-related gene (hERG) potassium channel, sequence (Q12809 whole entry, looked up): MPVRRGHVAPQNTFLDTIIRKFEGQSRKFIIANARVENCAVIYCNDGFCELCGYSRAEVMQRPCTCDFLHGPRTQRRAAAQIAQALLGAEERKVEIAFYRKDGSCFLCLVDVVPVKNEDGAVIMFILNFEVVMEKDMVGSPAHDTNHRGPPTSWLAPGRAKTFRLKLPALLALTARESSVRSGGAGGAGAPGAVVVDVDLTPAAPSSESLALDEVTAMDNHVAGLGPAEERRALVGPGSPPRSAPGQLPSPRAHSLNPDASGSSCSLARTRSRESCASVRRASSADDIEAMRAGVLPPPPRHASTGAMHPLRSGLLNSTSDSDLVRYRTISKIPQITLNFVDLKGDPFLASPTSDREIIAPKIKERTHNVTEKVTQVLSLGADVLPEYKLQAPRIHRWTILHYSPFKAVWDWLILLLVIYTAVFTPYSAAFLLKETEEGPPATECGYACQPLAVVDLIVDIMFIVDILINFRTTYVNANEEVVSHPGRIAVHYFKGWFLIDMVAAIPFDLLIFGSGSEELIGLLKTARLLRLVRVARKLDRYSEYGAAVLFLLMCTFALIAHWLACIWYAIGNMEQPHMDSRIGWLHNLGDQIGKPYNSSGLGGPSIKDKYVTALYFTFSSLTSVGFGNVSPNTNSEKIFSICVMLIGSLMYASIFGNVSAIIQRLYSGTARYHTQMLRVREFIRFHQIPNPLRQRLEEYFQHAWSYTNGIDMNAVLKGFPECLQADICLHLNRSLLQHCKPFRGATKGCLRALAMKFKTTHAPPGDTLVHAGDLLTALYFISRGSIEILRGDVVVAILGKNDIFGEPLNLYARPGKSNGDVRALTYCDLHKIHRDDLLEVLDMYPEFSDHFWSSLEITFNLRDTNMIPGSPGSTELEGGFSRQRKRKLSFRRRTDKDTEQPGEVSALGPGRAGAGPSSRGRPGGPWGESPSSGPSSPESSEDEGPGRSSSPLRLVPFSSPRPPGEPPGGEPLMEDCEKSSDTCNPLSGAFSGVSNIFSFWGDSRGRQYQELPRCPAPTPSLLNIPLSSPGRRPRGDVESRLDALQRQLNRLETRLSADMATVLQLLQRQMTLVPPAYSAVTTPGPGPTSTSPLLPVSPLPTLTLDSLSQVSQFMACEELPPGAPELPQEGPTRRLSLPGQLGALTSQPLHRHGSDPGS

| Compound | hERG current change (%, negative = inhibition) at 10uM |
| --- | --- |
| CC(C)c1nc(NCCO)c2nnn(Cc3ccccc3)c2n1 | 26% |
| COc1cccc(-n2nnnc2SCC(=O)NCc2ccc3c(c2)OCO3)c1 | -9.04% |
| CNC(=O)COC(=O)c1[nH]c(C)c(C(C)=O)c1C | 15.2% |
| O=C(Nc1ccc2c(c1)OCCO2)c1cccc(Cl)c1Cl | -8.58% |
| O=c1[nH]c(N2CCN(Cc3ccc4c(c3)OCO4)CC2)nc2c1CCCC2 | 5.59% |
| CC1CCCCN1c1nnc(N)s1 (stereo not drawn) | 1.22% |
| COc1ccc(C(=O)C(=O)c2ccc(OCCO)cc2)cc1 | -10.6% |
| COc1ccc(NC(=O)CN(C)C(=O)c2cc(S(=O)(=O)N(C)C)ccc2N2CCCC2)cc1 | -13.8% |
| COc1cc(/C=N/NC(=O)CC23CC4CC(CC(C4)C2)C3)cc(Br)c1OCC(=O)N(C)C | -18.1% |
| O=C(NNC(=O)c1ccc[nH]1)Nc1cccc(C(F)(F)F)c1 | 15.6% |
| CN1CCN(S(=O)(=O)c2ccc(C#N)cc2)C(c2ccccc2)C1.Cl (stereo not drawn) | -11% |
| Nc1c(N2CCOCC2)cc(Cl)c2nonc12 | -39.9% |
| COc1ccc(NS(=O)(=O)c2cc(NC(=O)[C@@H](NC(N)=O)C(C)C)ccc2C)cc1 | 11.9% |
| O=c1c(C=NCCN2CCNCC2)c(O)n(C2CCCCC2)c(=O)n1C1CCCCC1 | -17.8% |
| CC(C)(C)c1ccc(C(=O)NC(=S)NNC(=O)COc2ccccc2)cc1 | 15.5% |
| CC1CC(C)(C)NCCNC(C)CC(C)(C)NCCN1 (stereo not drawn) | -1.39% |
| CCOC(=O)C(NC(=O)CC(C)C)(Nc1cc(C)on1)C(F)(F)F (stereo not drawn) | -10.4% |
| O=C(O)c1ccc2c(c1)S(=O)(=O)c1ccccc1C2=O | 17% |
| COc1cccc(N(CC(=O)O)S(=O)(=O)c2ccccc2)c1 | 4.43% |

| Compound | hERG current change (%, negative = inhibition) at 10uM |
| --- | --- |
| O=C1CN(C(=O)/C=C/c2cc(Br)ccc2F)CCN1 | -5.51% |
| COC(=O)C1=CN(Cc2ccc(OC)cc2)C=C(C(=O)OC)C1c1ccc(O)c(OC)c1 | 12.5% |
| COC(=O)c1cc(S(=O)(=O)NCC2CCN(CCc3ccc(OC)cc3)CC2)c[nH]1 | -67% |
| COc1ccc([C@H]2CC(=O)C=C(c3ccc(Cl)c(F)c3)C2)cc1 | -13.1% |
| Cc1nnc(SCc2nnc(-c3ccc(Cl)cc3)o2)n1-c1ccccc1 | -31.9% |
| O=C(CSc1nnc(Nc2ccccc2)s1)NCc1ccco1 | -6.18% |
| Cc1cc(Cl)ccc1NC(=O)COC(=O)c1cc([N+](=O)[O-])ccc1N1CCOCC1 | -49.2% |
| CCCCCn1c(N2CCC(C(N)=O)CC2)nc2c1c(=O)[nH]c(=O)n2C | -3.45% |
| O=c1[nH]c(=S)ccn1C1OC(CO)C(O)C1O (stereo not drawn) | 23% |
| O=C(CN1C(=O)NC(Cc2c[nH]c3ccccc23)C1=O)NCC(F)(F)F (stereo not drawn) | 16.2% |
| CC(=O)C(Cc1cccc(F)c1)(Cc1cccc(F)c1)C(C)=O | -11.9% |
| O=C(c1ccc(S(=O)(=O)Cc2ccccc2Cl)c([N+](=O)[O-])c1)N1CCN(c2ccccn2)CC1 | -43.3% |
| CNS(=O)(=O)c1ccc(NC(=O)c2ccc(Cl)cc2Cl)cc1 | 6.79% |
| Cc1cnc(C(=O)OCC(=O)Nc2sc3c(c2C#N)CCC3)cn1 | -0.0452% |
| Cc1cc(C)n(Cc2ccc(Cl)nc2)n1 | 6.78% |
| O/N=C1\CCCCc2ccccc21 | 13.8% |
| O=C(CC(=O)NCc1ccc(Cl)cc1)NCc1ccccc1 | -3.34% |
| O=C(CSc1ccc(-c2ccc(F)cc2)nn1)NCc1ccco1 | 7.97% |
| CCc1ccc(NC(=O)CCS(=O)(=O)c2ccc3c(c2)CCN3C(C)=O)cc1 | 1.45% |

| Compound | hERG current change (%, negative = inhibition) at 10uM |
| --- | --- |
| CCN1C(=O)c2cccc3c(NC(=O)c4ccccc4)ccc1c23 | 9.37% |
| COc1ccc(NC(=O)c2cc(S(=O)(=O)N3CCCC3)ccc2OC)cc1 | 9.85% |
| N#CCNC1CC(=O)N(c2ccc(F)cc2)C1=O (stereo not drawn) | -0.683% |
| CCO[C@H]1OC(C(=O)NCc2ccccc2)=C[C@@H](c2ccc3c(c2)OCO3)[C@@H]1CCCO | -9.78% |
| CC(=O)c1nc(N2C(=O)CC(Cc3ccc(C)cc3)C2=O)sc1C (stereo not drawn) | 3.3% |
| NC(=O)c1ccc(NC(=O)c2ccc3c(c2)CCN3S(=O)(=O)c2ccccc2)cc1 | 21.5% |
| CCCCNC(=O)c1cnc2n(c1=O)CCS2 | -2.28% |
| Cc1ccc(C(C(=O)NC2CCCC2)N2CCCC(C)C2)cc1 (stereo not drawn) | -0.601% |
| Cc1ccc(C(=O)OCC(=O)NC(=O)NCc2ccccc2)cc1C | 7.95% |
| Cc1nc(SCC(=O)CC(=O)OC(C)C)c(C#N)c(C)c1C | -9.16% |
| Nc1[nH]n(-c2ccccc2)c(=O)c1N=Nc1ccccc1[N+](=O)[O-] | 10% |
| Cc1noc(C(=O)Nc2cccc(Cl)c2)c1Cl | 16.5% |
| Cc1cc([N+](=O)[O-])cnc1Sc1nccn1C | 9.93% |
| CCC(C(=O)OC)(C(=O)OC)c1ccc([N+](=O)[O-])cc1 | -3.82% |
| CC12CCC(C(=O)N3CCN(Cc4ccccc4)CC3)(OC1=O)C2(C)C (stereo not drawn) | 13.2% |
| Cc1c(C(=O)NC(=S)Nc2ccc(NC(=O)c3cccs3)cc2)cccc1[N+](=O)[O-] | -0.455% |
| CC(=C/c1ccccc1)/C=N/NC(=O)c1cc(C)oc1C | 14.4% |
| Cc1nc2ccc(NS(=O)(=O)c3ccc(F)c(C)c3)cc2[nH]1 | -14.8% |
| CCN(C(=O)Cn1nc(C)c([N+](=O)[O-])c1C)c1c(N)n(Cc2ccccc2)c(=O)[nH]c1=O | 9.02% |
